Binding signal data for 172 sequences are collected here from publication PMC10668032.

This is one part of the list. At the low end of the ranking, values are background and their order means little.

This assay has as its target SIX1 homeodomain (reference allele) (UniProt Q15475). Nature of the assay: universal protein binding microarray. The settings on record: Universal all-10-mer PBM (8x60K, AMADID 030236), 300 nM GST-tagged protein, Alexa Fluor 488 anti-GST; buffer, salt, pH and temperature not stated; high values mean tight binding; most listed sequences are background and not binding sites; double strand, one strand shown.
With ATGATAGA, the binding signal worked out at 0.0497 E-score.
Regarding TATCGTGA, the binding signal was determined as 0.279 E-score.
With TATTTGAA, the binding signal was 0.0703 E-score.
Consider ACCCTGTG, for which the binding signal stood at 0.129 E-score.
As to ACCGCTGA, the binding signal was -0.00915 E-score.
Consider ACCTTCTA, for which the binding signal was found to be 0.00562 E-score.
Then TCAGGCGA, with 0.0326 E-score; and AGGCAACC, with -0.121 E-score; and CTTCAGTC, with -0.142 E-score.
Take AAAACCGG: the binding signal is 0.0498 E-score.
Turning to ATTATACG, the binding signal was 0.302 E-score.
Consider GCTCGACA, for which the binding signal is -0.202 E-score.
On to GCTCGGAA, for which the binding signal was -0.21 E-score.
Consider CTTCCCAC, for which the binding signal was -0.0352 E-score.
As to ACCTCCCG, the binding signal worked out at 0.0126 E-score.
As to CGCACGAG, the binding signal worked out at 0.031 E-score.
For CGAACTAG, the binding signal was 0.093 E-score.
Take CGCGTGTA: the binding signal was 0.138 E-score.
Consider CTTCCTTA, for which the binding signal is -0.139 E-score.
For GAGGGACC, the binding signal was -0.142 E-score.
Next, ATAAATTG: 0.0219 E-score; AGTAGTAC: -0.0347 E-score; GGGATAAC: 0.303 E-score.
Next, GACGTGCA: -0.182 E-score; AAATATAG: 0.0506 E-score; CCTTAAAA: -0.243 E-score.
Take GGTGAGGA: the binding signal is -0.0525 E-score.
For the sequence ACGTCACT, the binding signal is -0.213 E-score.
As for ATACGTGA, the binding signal was determined as 0.336 E-score.
As to ATGGTTCA, the binding signal came out at 0.14 E-score.
For the sequence CATTGCGG, the binding signal turned out to be 0.222 E-score.
Turning to CCGTACCA, the binding signal is 0.0411 E-score.
Next, CGTACCTA: 0.0727 E-score; AGACACGA: -0.0757 E-score.
As to GGCGATGA, the binding signal is 0.193 E-score.
Consider CGGATGCA, for which the binding signal was determined as 0.0793 E-score.
Next, AATACGAG: 0.233 E-score; CCTAAAGA: -0.065 E-score.
Consider ACAAACAG, for which the binding signal was -0.126 E-score.
For CGTCGTTC, the binding signal was -0.19 E-score.
Regarding AGTATGCC, the binding signal is -0.0268 E-score.
Next, CTTCGTCA: -0.0487 E-score; GGGCCTGA: -0.193 E-score.
As for GTAGCTTA, the binding signal came out at 0.0111 E-score.
Consider CCTGCGCC, for which the binding signal is -0.157 E-score.
For GGAATTCC, the binding signal is -0.199 E-score.
Take ACGTCTAG: the binding signal amounted to 0.00898 E-score.
Consider GCGATAAC, for which the binding signal is 0.114 E-score.
Then GCCTACAA, with -0.123 E-score; and TCAGGGGA, with 0.31 E-score; and TAATCCAA, with 0.185 E-score.
In the case of ACATACGC, the binding signal turned out to be 0.0882 E-score.
On to CGAATGCC, for which the binding signal was -0.0542 E-score.
For the sequence TCGGGGCA, the binding signal stood at 0.0548 E-score.
As for GCATGGCA, the binding signal was -0.184 E-score.
Regarding AGGAGCGA, the binding signal is -0.0126 E-score.
Next, ACTCGCGG: -0.0701 E-score.
As for GCGTCGTA, the binding signal was -0.0171 E-score.
For CCTTGCAA, the binding signal was -0.181 E-score.
Take GCCATTAA: the binding signal was -0.0349 E-score.
Consider CGCTATGA, for which the binding signal worked out at 0.0883 E-score.
On to GTATATCA, for which the binding signal is 0.429 E-score.
For AAGGATGC, the binding signal was -0.103 E-score.
For GAACCAGC, the binding signal is -0.0751 E-score.
Turning to GTTGTTAA, the binding signal was -0.149 E-score.
On to GTTACAAA, for which the binding signal was -0.0719 E-score.
Regarding TTAACTAA, the binding signal was -0.108 E-score.
Then CCCCACGC, with 0.0318 E-score; and ACACGGTA, with 0.188 E-score; and ACGTTTTA, with -0.0854 E-score.
As for GCACCACC, the binding signal was -0.0595 E-score.
For the sequence AAAAAGAC, the binding signal is -0.183 E-score.
Consider CCTCCGTA, for which the binding signal was determined as 0.0772 E-score.
With TAGGGGGA, the binding signal turned out to be 0.134 E-score.
Regarding CTATGTCA, the binding signal was -0.0989 E-score.
Take TCAGACCA: the binding signal is -0.0181 E-score.
Consider AATGTGAG, for which the binding signal was -0.104 E-score.
Then AACCAGAA, with -0.0951 E-score; and GACAGCTC, with -0.212 E-score; and ATAGAGAC, with -0.0979 E-score.
Next, CTCTAGCA: -0.203 E-score.
As for ATACCCTG, the binding signal came to 0.439 E-score.
Turning to CGATCACG, the binding signal was 0.251 E-score.
In the case of ACTTATTA, the binding signal was -0.0806 E-score.
With AGACATTA, the binding signal is -0.131 E-score.
Regarding AGGAGCTA, the binding signal was -0.161 E-score.
Turning to GCCCACGC, the binding signal was -0.15 E-score.
As to GTTCGTAA, the binding signal is -0.101 E-score.
Next, ACTTGAGG: -0.176 E-score; TGTCTTAA: -0.0867 E-score; CCGAGCCA: 0.103 E-score.
ACCTTCGG: the binding signal is -0.118 E-score.
Take TGTAGCAA: the binding signal was -0.203 E-score.
As for AGGGTGTA, the binding signal was 0.313 E-score.
With TAGATGCA, the binding signal amounted to 0.104 E-score.
Regarding ACGGACCC, the binding signal was -0.149 E-score.
For AGCTCGGA, the binding signal is -0.0978 E-score.
Regarding AGTTAACG, the binding signal was -0.109 E-score.
As for CATAATCA, the binding signal is 0.12 E-score.
Then CCAGGCGA, with 0.0567 E-score; and ACGACCCT, with -0.00944 E-score; and TCATACCA, with 0.00415 E-score.
Take ATTTCGCG: the binding signal is -0.159 E-score.
Next, GCATGTAC: -0.0943 E-score; AGCCGGTA: 0.169 E-score.
Then AACCGTGC, with -0.112 E-score; and AGGTTTTA, with -0.129 E-score.
GACTGGAC: the binding signal is -0.267 E-score.
With GCCTGGAA, the binding signal is -0.205 E-score.
Regarding AGAAGACC, the binding signal was -0.0826 E-score.
With CTATTTGC, the binding signal is -0.145 E-score.
Regarding AACGCACA, the binding signal is 0.0635 E-score.
Next, AAGCCCTA: -0.202 E-score; AACCTGTA: -0.0386 E-score; TATATGAA: -0.0221 E-score.
For AAGCCTGC, the binding signal was -0.294 E-score.
Take AATTACTC: the binding signal is -0.178 E-score.
For AGTATAAG, the binding signal is 0.161 E-score.
Turning to AGTGCGGG, the binding signal turned out to be 0.0463 E-score.
Then CGCGGGAC, with -0.117 E-score.
On to ATCGTCTA, for which the binding signal was found to be 0.261 E-score.
Turning to CCGTCACG, the binding signal is -0.165 E-score.
As to CTGCTTGC, the binding signal is -0.245 E-score.
On to AATGTGTG, for which the binding signal was -0.127 E-score.
Take CTTGAGCA: the binding signal is -0.141 E-score.
On to ATCTATCC, for which the binding signal amounted to 0.372 E-score.
With CCGCGTTA, the binding signal is -0.0184 E-score.
Turning to ATTCCGTA, the binding signal worked out at 0.0707 E-score.
Next, GTCTTTAA: -0.025 E-score; AGGGTGTG: 0.125 E-score; CTCCGAGA: -0.00203 E-score.
TGGCTCAA: the binding signal turned out to be 0.0458 E-score.
With AAATTACC, the binding signal is -0.176 E-score.
For the sequence TTCATGAA, the binding signal was -0.206 E-score.
GACGCAGC: the binding signal was -0.0597 E-score.
Next, AGTCCTCG: -0.236 E-score.
As to CCGCCTAA, the binding signal is -0.102 E-score.
For ACTTCCCC, the binding signal is -0.218 E-score.
Take ATACTTAG: the binding signal was 0.205 E-score.
Then AAACCTGT, with -0.0785 E-score; and CCCCATCA, with 0.152 E-score.
For the sequence CAGTGTGA, the binding signal amounted to 0.133 E-score.
In the case of AAGCATTC, the binding signal was -0.162 E-score.
In the case of AAGAATGG, the binding signal is -0.139 E-score.
TAATGAAA: the binding signal is -0.336 E-score.
Next, CTCATCGA: 0.0474 E-score; TACATGTA: 0.176 E-score; CTTTGATA: 0.331 E-score.
GGCCGCAC: the binding signal was -0.287 E-score.
For the sequence CGATTGAG, the binding signal was -0.117 E-score.
Then CAACGGGA, with -0.17 E-score.
In the case of AGAGGTCG, the binding signal was -0.0976 E-score.
Next, CAAATAAG: -0.251 E-score; CGCCGTTA: 0.051 E-score.
Turning to GGAGGTAC, the binding signal was -0.205 E-score.
For AACGGATA, the binding signal is 0.421 E-score.
Take AACCGCTG: the binding signal was -0.0859 E-score.
In the case of ACACAGTG, the binding signal was -0.052 E-score.
Then CTCTTGAA, with -0.0709 E-score.
Consider ACGCGAGG, for which the binding signal is -0.14 E-score.
CGCACGAA: the binding signal came to 0.00358 E-score.
Regarding ACATTGTC, the binding signal is -0.0312 E-score.
For the sequence ACACATAC, the binding signal came to 0.164 E-score.
For CTTCATGA, the binding signal was 0.077 E-score.
Next, CACTCCTA: -0.0883 E-score.
Consider ATCAGTTG, for which the binding signal came out at 0.253 E-score.
CACGCAAG: the binding signal is 0.115 E-score.
For the sequence GATTAGAA, the binding signal was 0.184 E-score.
With ACCGAGGA, the binding signal was 0.0936 E-score.
In the case of GCCGGTTA, the binding signal came to 0.0166 E-score.
Next, ACCATCAT: -0.0916 E-score.
As for CAGGGTTC, the binding signal is -0.0102 E-score.
